Experimental data published in the supplement of paper PMC3334620.
In all, about 33,000 sequences were measured (“E-score (-0.5 to 0.5)”: median about -0.016, highest 2% from about 0.31 on). The list shows a part of the results.

Target: Cst6 (UniProt P40535)
Test: PBM E-score (8-mer binding enrichment) (E-score (-0.5 to 0.5)); higher = stronger / more preferred TF binding; most listed sequences are background and not binding sites
Details: protein concentration: 200 nM; construct: GST-DNA-binding domain
Protocol: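 Universal 'all 10-mer' protein binding microarrays (Agilent AMADID 015681) probed with GST-tagged S. cerevisiae TFs (full-length or DBD) made by in vitro transcription/translation (PURExpress), about 100-200 nM. Bound TF was detected with fluorescent anti-GST. Each ungapped 8-mer (which stands for itself and its reverse complement) is scored by the PBM enrichment score (E-score), a modified Wilcoxon-Mann-Whitney statistic from -0.5 to +0.5, computed with the Universal PBM Analysis Suite. Scale: above 0.35 generally sequence-specific binding.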

Sequence | PBM E-score
AGCTCTAA | -0.115
AGCATGCA | -0.103
CACTAATA | 0.211
AGACACCT | -0.151
ATATTGTA | 0.149
CCTTACCG | 0.00947
CACACGGA | 0.0766
GGGCTACC | -0.139
CTGCGACA | -0.0645
ATAGTACG | 0.0413
CAATGATC | 0.095
ATTGGACA | 0.0169
AAGCCAAG | -0.241
CATCGATG | 0.187
ACACGTTA | 0.126
AAAAATTC | 0.186
AAAAGCAC | -0.19
ACCATAGC | -0.0917
TAACAACA | 0.0959
CTTGTTGC | 0.0961
ATTAGCCG | 0.026
CACGTGCG | -0.038
CACCTCCA | 0.0498
ACCTAGCG | -0.147
ATAGCTGG | -0.172

Sequence | PBM E-score
AGGGGCGG | -0.0232
CAATAGGG | -0.159
CGAGTCCC | -0.194
AAACCCAC | 0.0356
ACATTGTC | 0.148
CACGTAAG | 0.292
CCGCTGTC | -0.179
AAGCCTGC | -0.118
ATTGACAA | -0.00121
TATACCGA | 0.00086
CCAGCAAA | 0.055
AAATTTGC | 0.0737
AAATACTA | 0.216
GTCTGGTA | -0.0596
GATGAAGC | -0.0781
GGCTCGAA | 0.00691
TCTACCCA | -0.107
GAGGACCC | -0.341
ATAATCAG | 0.106
CATGGGTA | -0.0527
CGTATGAC | 0.443
AGGGCATC | -0.0843
CATGCGTA | 0.15
CCAAGAAA | 0.0709
TGCACGCA | -0.0594

Sequence | PBM E-score
AATACTAA | 0.23
ATCAAAAT | 0.101
GGTAGGAA | -0.199
AACGTTCA | -0.0579
TAACCGAA | -0.0904
ATCTGATC | 0.0364
GGTGAATA | 0.0601
AAACAGAC | 0.017
ACGGACTA | -0.0648
CCGTCGCC | -0.0855
CGCTTAAG | -0.0826
CCTTGTAC | -0.0491
CCCCATAC | -0.126
AGCTCAGG | 0.163
AGTTTTGG | 0.029
GTGACCTA | 0.192
AAATCCGA | 0.0442
CGTGGTAG | -0.0502
CGCTGATC | -0.00594
CCAAGGTC | -0.189
GCGGTCTA | -0.0855
AGCAATTG | 0.158
ACGCAGCT | -0.00659
GGAACCAC | -0.0995
CATCCAGG | -0.216

Sequence | PBM E-score
ATATACTC | 0.0668
CACTATAA | 0.0085
AGCGTATA | 0.0915
AAGCCGGC | -0.187
GCTTACAA | 0.0326
AGCCTCGA | -0.128
AAAGGGAT | 0.032
AGAAAGCC | 0.119
CTCTCCTC | -0.386
ACCCGCGG | 0.0671
CGTTCTAC | -0.153
CAAGAAAA | 0.188
TACCCGCA | 0.11
CAATGGAG | -0.139
AGTCACCG | 0.0644
AGAAACCC | -0.0201
TAATGTAA | 0.245
AGCAGCCA | -0.0967
GACTTGAA | -0.171
CCCTGAAG | -0.156
CAACTACA | 0.105
CCCTGGGA | -0.296
GCCAGCCA | -0.197
ATGTACCA | 0.00974
CGGTGGAC | -0.248

Sequence | PBM E-score
GACATGGA | 0.00273
CCTGGAGA | -0.132
GATGTGAC | 0.09
CACTCGAG | -0.159
GATCGATC | 0.103
CCTCCTCC | -0.339
GCAAGTCC | -0.277
AACATGCC | 0.0181
CCGCTACA | -0.206
ATTACCAA | 0.167
AAGGGCCG | -0.0634
GGTACCCA | -0.187
CTCGGGCA | -0.0998
CTTAGTGA | 0.106
AGACCATA | 0.106
CGAGCCGA | -0.122
ATGACTCC | 0.0246
CAACAGAA | 0.0546
ATTAGAAG | 0.0209
AGGTTGCA | 0.0922
ATCCGAGG | -0.066
GATGGTTA | 0.0793
CAGACAAG | -0.14
AAATCGAA | 0.124
CAGGCCAG | -0.17

Sequence | PBM E-score
CCAGGAGG | -0.294
ATGCGAAG | 0.0305
CCAAAATA | 0.163
AATCGATG | 0.238
AAAGGTAC | -0.104
TCCCCCGA | -0.326
ATACTGAG | 0.164
CATGTCAC | 0.36
AAATCATG | 0.2
CCGTAAAG | 0.00566
GGCGCCCA | 0.0785
CTGGTGGA | -0.263
CAAAGAGC | -0.0802
GGAGCCCC | -0.32
CTTTTCAA | 0.158
ATTCAGCA | 0.00552
CGCCGAGC | 0.0842
CCTTGTGC | -0.322
CGTAGACA | -0.0846
TGCCCCAA | -0.059
GAGGTTAC | -0.00533
GAAAATAC | 0.0815
AACGAATG | 0.113
CAGTATAC | 0.154
CAAATACG | 0.0811

Sequence | PBM E-score
CGGGGTTC | -0.289
GGGGGAAA | -0.247
CTAAATGC | 0.065
AAAGGGAA | -0.0935
AGAAACTC | 0.0705
CCGGTCAC | -0.079
CTCAACTC | -0.0659
AACGATCT | -0.0808
GCTACTCA | 0.00083
ATACAGGA | -0.0267
AGCGCACT | -0.303
ACCATCGG | -0.172
ACCGCGTA | -0.0111
CCAACGGA | -0.112
GCGTACTA | -0.126
ATGAGCAA | 0.156
AAGACGAT | 0.198
AGCGCGCC | -0.00777
AGGACAGC | -0.144
GACACCCC | -0.247
CACTAACC | -0.049
ACAAGTGA | 0.0779
